From a collection of fitness landscapes (doi:10.1016/j.celrep.2020.107928)
The full ranking holds about 81,000 sequences; the median of “one-hybrid fitness for binding parS DNA” is about -0.17, and the highest 2% start at about 0.51. This is one part of the list.

B1: Caulobacter ParB omega fusion; a variant is named by its letters at X, in order, B8GW30 (parent)
chain: MESVVVGEPGMSEGRRGLGRGLSALLGEVDAAPAQAPGEQLGGSREAPIEILQRNPDQPRRTFREEDLEDLSNSIREKGVLQPILVRPSPDTAGEYQIVAGERAWRAAQRAGLKTVPIMVRELDDLAVLEIGIIENVQRADLNVLEEALSYKVLMEKFERTQENIAQTIGKSXSHVANXMRLLXLPDEVQSYLVSGELTAXHARAIAAAADPVALAKQIIEGGLSVRETEALARKAPNLSAGKSKGGRPPRVKDTDTQALESDLSSVLGLDVSIDHRGSTGTLTITYATLEQLDDLCNRLTRGI

Variants of: B1
Assay: one-hybrid fitness for binding parS DNA (scaled: cognate 1, non-cognate 0); higher = stronger binding
Conditions: with parS DNA site
Method in brief: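 Values were rescaled so that cognate is 1 and non-cognate is 0. Each is a fitness, the log change in a variant's read ratio to wild type from Illumina reads of plasmids before and after selection, with three replicate libraries pooled and variants under 10 reads dropped. Selection of the Caulobacter ParB libraries, four specificity codons randomised, used E. coli USO with a HIS3 reporter, site 19 bp from the promoter, on M9-minus-histidine with 0.1 mM IPTG and 5 mM 3-AT for 48 hours at 37°C.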

Row | Variant | one-hybrid fitness for binding parS DNA
1 | KKQY | ≤ 0.2
2 | YPFW | ≤ 0.2
3 | FIRV | ≤ 0.2
4 | QVWM | ≤ 0.2
5 | SIYT | ≤ 0.2
6 | IRTG | ≤ 0.2
7 | NLNG | ≤ 0.2
8 | IKSG | ≤ 0.2
9 | PCFV | ≤ 0.2
10 | RWFG | 0.615
11 | FDYG | ≤ 0.2
12 | GLPN | ≤ 0.2
13 | MFCL | ≤ 0.2
14 | GCMA | ≤ 0.2
15 | PFKD | ≤ 0.2
16 | YLWC | ≤ 0.2
17 | AYKR | ≤ 0.2
18 | KQYT | ≤ 0.2
19 | TSKM | ≤ 0.2
20 | TPYG | ≤ 0.2
21 | DGCR | ≤ 0.2
22 | CKRH | ≤ 0.2
23 | TLLL | ≤ 0.2
24 | LREP | ≤ 0.2

Row | Variant | one-hybrid fitness for binding parS DNA
25 | DFFL | ≤ 0.2
26 | HWTQ | 0.216
27 | EPVY | ≤ 0.2
28 | HESC | ≤ 0.2
29 | YYET | ≤ 0.2
30 | YHRT | ≤ 0.2
31 | QWVS | ≤ 0.2
32 | TVGA | ≤ 0.2
33 | MYKS | ≤ 0.2
34 | LEET | ≤ 0.2
35 | FKHA | ≤ 0.2
36 | IREN | ≤ 0.2
37 | ERYR | ≤ 0.2
38 | RICM | 0.373
39 | NQTE | ≤ 0.2
40 | VDEY | ≤ 0.2
41 | TCHE | ≤ 0.2
42 | IVGR | ≤ 0.2
43 | SYNQ | ≤ 0.2
44 | MVEF | ≤ 0.2
45 | AMWM | ≤ 0.2
46 | KERF | ≤ 0.2
47 | AKTQ | ≤ 0.2
48 | LNEG | ≤ 0.2

Row | Variant | one-hybrid fitness for binding parS DNA
49 | QRKR | ≤ 0.2
50 | RSNA | 0.596
51 | LFLF | ≤ 0.2
52 | SVPR | ≤ 0.2
53 | RCHV | ≤ 0.2
54 | RYGY | 0.42
55 | VNAY | ≤ 0.2
56 | CMTL | ≤ 0.2
57 | RLGE | ≤ 0.2
58 | RSRR | ≤ 0.2
59 | HLMC | ≤ 0.2
60 | MKSY | ≤ 0.2
61 | APNA | ≤ 0.2
62 | ISTD | ≤ 0.2
63 | VVIG | ≤ 0.2
64 | PGVG | ≤ 0.2
65 | HTEV | ≤ 0.2
66 | VRFI | ≤ 0.2
67 | TWPT | ≤ 0.2
68 | MQLE | ≤ 0.2
69 | TAEV | ≤ 0.2
70 | LILF | ≤ 0.2
71 | HHVG | ≤ 0.2
72 | YRPC | ≤ 0.2

Row | Variant | one-hybrid fitness for binding parS DNA
73 | MEPD | ≤ 0.2
74 | FSDF | ≤ 0.2
75 | SAPN | ≤ 0.2
76 | RQSY | 0.465
77 | TLGA | ≤ 0.2
78 | QPTN | ≤ 0.2
79 | RNRY | 0.503
80 | CRVA | ≤ 0.2
81 | EDKS | ≤ 0.2
82 | VVYR | ≤ 0.2
83 | AWQW | ≤ 0.2
84 | CTQM | ≤ 0.2
85 | PHHQ | ≤ 0.2
86 | TCII | ≤ 0.2
87 | RLDM | 0.299
88 | RGHD | ≤ 0.2
89 | QAPD | ≤ 0.2
90 | RMRN | 0.418
91 | CMAS | ≤ 0.2
92 | GGPS | ≤ 0.2
93 | HTAM | ≤ 0.2
94 | DVLM | ≤ 0.2
95 | NRVF | ≤ 0.2
96 | CGAR | ≤ 0.2

Row | Variant | one-hybrid fitness for binding parS DNA
97 | QIQL | ≤ 0.2
98 | ETIW | ≤ 0.2
99 | TADG | ≤ 0.2
100 | GNSI | ≤ 0.2
101 | EGSV | ≤ 0.2
102 | MRRH | ≤ 0.2
103 | PGDI | ≤ 0.2
104 | RKQW | ≤ 0.2
105 | TNPM | ≤ 0.2
106 | WSQF | ≤ 0.2
107 | QQGY | ≤ 0.2
108 | RSMT | 0.813
109 | QTCY | ≤ 0.2
110 | RSEL | ≤ 0.2
111 | SVHW | ≤ 0.2
112 | ASSP | ≤ 0.2
113 | YSHS | ≤ 0.2
114 | KAKW | ≤ 0.2
115 | QKEN | ≤ 0.2
116 | DITY | ≤ 0.2
117 | SQRE | ≤ 0.2
118 | KLNT | ≤ 0.2
119 | STMM | ≤ 0.2
120 | FQVG | ≤ 0.2

Row | Variant | one-hybrid fitness for binding parS DNA
121 | RSWS | 0.989
122 | VLST | ≤ 0.2
123 | FAIL | ≤ 0.2
124 | LHII | ≤ 0.2
125 | DRDR | ≤ 0.2
126 | LANT | ≤ 0.2
127 | MKQG | ≤ 0.2
128 | WKML | ≤ 0.2
129 | IVDT | ≤ 0.2
130 | YDYG | ≤ 0.2
131 | GPET | ≤ 0.2
132 | CNSR | ≤ 0.2
133 | FVAT | ≤ 0.2
134 | TNMM | ≤ 0.2
135 | IRHV | ≤ 0.2
136 | GTSS | ≤ 0.2
137 | KFTF | ≤ 0.2
138 | VINF | ≤ 0.2
139 | KRAW | ≤ 0.2
140 | SETV | ≤ 0.2
141 | RRAL | ≤ 0.2
142 | WCKG | ≤ 0.2
143 | RYSK | ≤ 0.2
144 | MTEF | ≤ 0.2

Row | Variant | one-hybrid fitness for binding parS DNA
145 | DINN | ≤ 0.2
146 | LRPY | ≤ 0.2
147 | TADY | ≤ 0.2
148 | VCGG | ≤ 0.2
149 | DRVC | ≤ 0.2
150 | QPQK | ≤ 0.2
151 | NHHR | ≤ 0.2
152 | QHTC | ≤ 0.2
153 | EAYC | ≤ 0.2
154 | CVHG | ≤ 0.2
155 | DSHM | ≤ 0.2
156 | LNNN | ≤ 0.2
157 | YMQC | ≤ 0.2
158 | RWSD | ≤ 0.2
159 | AIMP | ≤ 0.2
160 | NRLD | ≤ 0.2
161 | LDAR | ≤ 0.2
162 | CENS | ≤ 0.2
163 | IRKK | ≤ 0.2
164 | MCYR | ≤ 0.2
165 | SLYE | ≤ 0.2
166 | GIPR | ≤ 0.2
167 | RFIA | 0.373
168 | SNSY | ≤ 0.2

Row | Variant | one-hybrid fitness for binding parS DNA
169 | SMKT | ≤ 0.2
170 | QCQT | ≤ 0.2
171 | PQFK | 0.3
172 | RRPK | ≤ 0.2
173 | LRVQ | ≤ 0.2
174 | LIKC | ≤ 0.2
175 | KQLS | ≤ 0.2
176 | LFNV | ≤ 0.2
177 | NVNS | ≤ 0.2
178 | ALHM | ≤ 0.2
179 | TYYC | ≤ 0.2
180 | YPKP | ≤ 0.2
181 | TYER | ≤ 0.2
182 | YYLS | ≤ 0.2
183 | RPDM | ≤ 0.2
184 | CKAG | ≤ 0.2
185 | DYNR | ≤ 0.2
186 | CDEF | ≤ 0.2
187 | REWN | ≤ 0.2
188 | YWER | ≤ 0.2
189 | QKCN | ≤ 0.2
190 | RTAK | ≤ 0.2
191 | CASW | ≤ 0.2
192 | DPKA | ≤ 0.2

Row | Variant | one-hybrid fitness for binding parS DNA
193 | TVWA | ≤ 0.2
194 | RLMH | 0.291
195 | KYYS | ≤ 0.2
196 | TANC | ≤ 0.2
197 | LFSC | ≤ 0.2
198 | HNGG | ≤ 0.2
199 | PMVE | ≤ 0.2
200 | QNAI | ≤ 0.2
201 | PNLE | ≤ 0.2
202 | HTAS | ≤ 0.2
203 | PPDM | ≤ 0.2
204 | RTKE | ≤ 0.2
205 | GFAC | ≤ 0.2
206 | CLEV | ≤ 0.2
207 | RWWW | ≤ 0.2
208 | LCMC | ≤ 0.2
209 | CQAT | ≤ 0.2
210 | NGLI | ≤ 0.2
211 | KYYN | ≤ 0.2
212 | YGWY | ≤ 0.2
213 | RSGT | 0.91
214 | GVIT | ≤ 0.2
215 | LFKC | ≤ 0.2
216 | AMYT | ≤ 0.2

Row | Variant | one-hybrid fitness for binding parS DNA
217 | DASS | ≤ 0.2
218 | PTPL | ≤ 0.2
219 | RVHL | ≤ 0.2
220 | AFHM | ≤ 0.2
221 | WGKG | ≤ 0.2
222 | DEGF | ≤ 0.2
223 | TPIG | ≤ 0.2
224 | KRLA | ≤ 0.2
225 | GYPT | ≤ 0.2
226 | QKWC | ≤ 0.2
227 | GTIW | ≤ 0.2
228 | KMKT | ≤ 0.2
229 | KFSR | ≤ 0.2
230 | LLTC | ≤ 0.2
231 | QQFA | ≤ 0.2
232 | DMIG | ≤ 0.2
233 | RMEV | ≤ 0.2
234 | AVTQ | ≤ 0.2
235 | NFFP | ≤ 0.2
236 | KHAC | ≤ 0.2
237 | ILNR | ≤ 0.2
238 | SSID | ≤ 0.2
239 | SWCT | ≤ 0.2
240 | IRLR | ≤ 0.2

Row | Variant | one-hybrid fitness for binding parS DNA
241 | VPIA | ≤ 0.2
242 | FSEV | ≤ 0.2
243 | GNPW | ≤ 0.2
244 | YLVA | ≤ 0.2
245 | CTIV | ≤ 0.2
246 | NRHN | ≤ 0.2
247 | FYRK | ≤ 0.2
248 | TPFE | ≤ 0.2
249 | HYSF | ≤ 0.2
250 | LAWK | ≤ 0.2
251 | GNVR | ≤ 0.2
252 | DCMC | ≤ 0.2
253 | PNMS | ≤ 0.2
254 | KITR | ≤ 0.2
255 | PINT | ≤ 0.2
256 | TKKG | ≤ 0.2
257 | KTAK | ≤ 0.2
258 | EHSG | ≤ 0.2
259 | WLSV | ≤ 0.2
260 | KFRR | ≤ 0.2
261 | AVFV | ≤ 0.2
262 | TPKH | ≤ 0.2
263 | SRQK | ≤ 0.2
264 | VIPF | ≤ 0.2

Row | Variant | one-hybrid fitness for binding parS DNA
265 | PNEV | ≤ 0.2
266 | LDKR | ≤ 0.2
267 | LSAW | ≤ 0.2
268 | RGRK | ≤ 0.2
269 | RNCN | 0.304
270 | IHGD | ≤ 0.2
271 | MTHT | ≤ 0.2
272 | QSEA | ≤ 0.2
273 | IDTM | ≤ 0.2
274 | SVRI | ≤ 0.2
275 | ALQE | ≤ 0.2
276 | RITS | 0.992
277 | TLDF | ≤ 0.2
278 | VNAC | ≤ 0.2
279 | RDWM | ≤ 0.2
280 | QMSG | ≤ 0.2
281 | QYKQ | ≤ 0.2
282 | DALT | ≤ 0.2
283 | QLAL | ≤ 0.2
284 | VGSL | ≤ 0.2
285 | DDRN | ≤ 0.2
286 | LVRI | ≤ 0.2
287 | ALAR | ≤ 0.2
288 | TSQN | ≤ 0.2

Row | Variant | one-hybrid fitness for binding parS DNA
289 | FERC | ≤ 0.2
290 | FRAQ | ≤ 0.2
291 | SPAL | ≤ 0.2
292 | MWHC | ≤ 0.2
293 | PARV | ≤ 0.2
294 | QNTM | ≤ 0.2
295 | KCRR | ≤ 0.2
296 | TGHI | ≤ 0.2
297 | VQPG | ≤ 0.2
298 | GGGR | ≤ 0.2
299 | HLVM | ≤ 0.2
300 | DDNG | ≤ 0.2
301 | GCMQ | ≤ 0.2
302 | FPDG | ≤ 0.2
303 | LWLS | ≤ 0.2
304 | KPHF | ≤ 0.2
305 | NDWV | ≤ 0.2
306 | QGSH | ≤ 0.2
